Read counts are not given, so values of variants with three or more changes are uncertain.
B1: LINE1-mini (parent)
chain: GGCAGAGCUCAACACAGCGUGGCAAAGUGGCUGUGGCUAGACUGCC

Variants of: B1
Test: self-cleavage, relative activity (ratio to wild type); higher = more cleavage; in vitro, sequencing; the parent is a self-cleaving ribozyme

Row | Variant | self-cleavage
1 | G1C G7A C10G G30U A41U G44U | 0
2 | G1C G5U G35U | 0
3 | G1C G5U C13A G29C U34A G36U | 0.01
4 | G1U A4C A14G G22U A24U G30U G33C C37A | 0.04
5 | G1C G21U C23A G29A C37A | 0.02
6 | G1C G27A G40A U43C | 0.01
7 | G1U A4U A41G | 0.14
8 | G1U A4U C13A G19A G33U C42G | 0.07
9 | G1C G2U C3U A12C C31G U38A | 0.01
10 | G1C C23U A26U U32C U38A | 0.02
11 | G1C C31G U38A | 0.01
12 | G1C G35C C45U | 0.04
13 | G1C C8A A14U G19U | 0.06
14 | G1C G5A A14G | 0.02
15 | G1C C18A U34G U38C | 0.01
16 | G1C C10U U38C A39U C46U | 0
17 | G1C C8A C10U A12C C15U U28C C45G | 0.03
18 | G1C C15G A16C | 0.05
19 | G1C G5C U28C G40U G44U | 0
20 | G1C C8U C10G G21C G29A G35C | 0.01
21 | G1C C13A U43C | 0.01

Row | Variant | self-cleavage
22 | G1C G19U G40A | 0.06
23 | G1C G17A C18A U20C G36A | 0.01
24 | G1C C31A G35U C37U | 0.07
25 | G1C C23U U34C | 0.01
26 | G1C G21A A26U U32A C37G A41C U43A | 0
27 | G1C U20G G21C A41U | 0.08
28 | G1C C10A C37U | 0
29 | G1U A4G A11G | 0.02
30 | G1C C10G C15U C18U G27A G44U | 0
31 | G1C G7A C18A G40A C45A | 0.01
32 | G1C C10A A14G | 0.01
33 | G1C U32A C37G | 0.02
34 | G1C G7C G29U U38A G44A | 0.08
35 | G1C G17U C45G | 0.02
36 | G1C G7C C18U | 0.03
37 | G1C G7U A14C G29C G30U C31A U32C | 0.01
38 | G1C C18A C46U | 0.04
39 | G1C C10U U20A U38C | 0.02
40 | G1C C23A C31G U38C | 0.02
41 | G1C G17C A41G | 0
42 | G1C G19U U20A | 0.06

Row | Variant | self-cleavage
43 | G1C C15U G17A A26U | 0.04
44 | G1C G5U A6G C10A G29U | 0.01
45 | G1C C18G A25U U34A A41C | 0.01
46 | G1C G17U C23A U28G G35A | 0
47 | G1C C8A G22U A41G C45U | 0.04
48 | G1C G19A G21U G27A | 0.1
49 | G1C C8U U34G U38C | 0
50 | G1C G19A G29A A41G | 0.03
51 | G1C G19U A24U A25U U38A C46A | 0.02
52 | G1C U20C U34C | 0.01
53 | G1C C10A G40A A41C | 0
54 | G1C C8G A11G G27U G30U C31G U34G G36U | 0
55 | G1C G17C U34C | 0.03
56 | G1C G2C C3A G19A | 0.1
57 | G1C U20G G21A G36U | 0.01
58 | G1C G19A G33C | 0.01
59 | G1C G22C G44U | 0.01
60 | G1C G30C A41G | 0
61 | G1C G21A G22C C23G A24G A25U | 0.1
62 | G1U A4G A14U A16C G27U A41U | 0.02
63 | G1C G17A G30U G36A U38A C45A | 0.05

Row | Variant | self-cleavage
64 | G1C C13G C15U G29C A39G | 0.03
65 | G1C C10G G33A | 0.01
66 | G1C G40U G44A | 0.03
67 | G1C U9C A24U G33A G44A | 0.03
68 | G1C U34A G44U | 0
69 | G1C C8U A41U C45G | 0.07
70 | G1C U32G G36U | 0.06
71 | G1C G33U G36U | 0
72 | G1C G21U G22C | 0.09
73 | G1C C15U U34A G36C G40U | 0.01
74 | G1C U34A C37G U38C | 0.01
75 | G1C G7U U32C | 0.02
76 | G1C C10G C18G | 0.01
77 | G1C G7A U34A C42A | 0.01
78 | G1C U20G G27U G44U | 0.02
79 | G1C C8U A12G G36A | 0.01
80 | G1C C15G G27U G33U | 0.01
81 | G1C U34A G40C | 0.01
82 | G1C C18G G21U C42G C46A | 0.03
83 | G1C U20G G22U G29C U34A G36A U38A C46U | 0.01
